# Laboratory results: the supplement of paper PMC11417369
# ± gives the standard deviation of the averaged measurements. The list shows a part of the results.
# Test system: PfAP2-EXP AP2 domain (GST-tagged)
# Assay: gcPBM binding intensity (ln(normalized median fluorescence intensity)); higher = stronger DNA binding
# Method in brief: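 Plasmodium falciparum DNA-binding domains carrying a GST tag were expressed in E. coli and applied for 1 h, at about 25 μg on average, to an Agilent 4 × 180k array. The array held primer-extended double-stranded 36-bp intergenic genomic probes together with negative controls, and binding took place in 1× PBS with 1% milk, 0.2 mg/ml BSA, 0.5% salmon testes DNA and 0.03% Triton X-100. An Alexa488 anti-GST antibody detected bound protein, and the array was scanned at 488 nm. Binding intensity is taken as the highest Masliner-normalised natural-log median intensity across replicate spots of either probe orientation.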
row,Sequence,gcPBM binding intensity (ln)
1,TATTTTATATTTCATTTGTTATTTTTCTTGGTTCTA [CACACA_negctrl_site33],8.63 ± 0.57
2,CATACATACATACATACACACATACATATGTATTTA [CACACA_site5384],9.26 ± 0.25
3,CAACACTTTCAAAAATGTACGTACAAATGTATTTTA [XGTACX_site6713],8.65 ± 0.32
4,ACAAAATAAAGACACACACACAAACACAAAAAAATA [CACACA_site7568],8.51 ± 0.72
5,AGTTTCCATATGAGGTGTACATATATAATTTATTAT [XGTACX_site2369],8.72 ± 0.4
6,TTATATGAAAAAATATGTACGTATAATGAGAAATAT [XGTACX_site8987],9.01 ± 0.39
7,AAATAGATAAACTAAACACACAAAAAAAAAAAAAAT [CACACA_site1179],8.41 ± 0.54
8,AAAATAACGAGTCAAACACACATATTTATATTTATA [CACACA_site7050],8.32 ± 0.49
9,TAATATAACTACATAACACACGAAAATATATGAATC [CACACA_site3628],9.03 ± 0.31
10,TCATTAATCAGGTATGCATGCATAACTATTAAAAAT [TGCATGCA_site90],9.75 ± 0.4
11,GTTATAAATGCATATACACACATACGTACATACATA [CACACA_site7655],8.79 ± 0.23
12,TCTTTTTTTTTTATTTGTACTTATTTTTTTCAAAAA [XGTACX_site3403],8.76 ± 0.33
13,AAAAAAAAAAAAAAAACACACATTTCTTTTTCATAT [CACACA_site11],8.71 ± 0.17
14,AATAATAATATATGTAGTACACATTTCCATTATGTT [XGTACX_site3708],8.65 ± 0.29
15,TTAATTATATATAAAAGTACTTATTTTTCCATATAA [XGTACX_site3033],8.14 ± 0.42
16,TAATAGGAAATTATAGGTACACATACAAATAAATAA [XGTACX_site3587],8.72 ± 0.41
17,ATGTAGATATATATATGTACTAATTAGTAGTTTACG [XGTACX_site6275],8.91 ± 0.4
18,AATGGTACATGATACACACACGCACATATATATATT [CACACA_site3425],8.77 ± 0.46
19,ACATAAATAATAAAAACACACATATGTACAGATATA [CACACA_site5112],8.81 ± 0.36

row,Sequence,gcPBM binding intensity (ln)
1,AGAAAAAATAAAAATAGTACTCAAAAAATTATGAAT [XGTACX_site4908],8.48 ± 0.3
2,AGAAAAAAAAAACACACACACACACCCTCAATATAA [CACACA_site39],8.64 ± 0.49
3,ATATTAAAAAGAAGTGTGCGCAAAACATTAACTTGA,9.14 ± 0.53
4,ATTTATATATTGCCCACACACATGTGATTATTTATA [CACACA_site1714],9.05 ± 0.48
5,TAAATAAACCTGACTTGTACATGTAAAATAAATATA [XGTACX_site1667],8.9 ± 0.42
6,AATGGATGGTCCAAATGTACATATATATATATATAT [XGTACX_site4800],10.1 ± 0.41
7,GCATAAATCAAACACACACACATATATATATATATA [CACACA_site2422],10.2 ± 0.21
8,AATGAATATAGTACTGAATGTAATTTAAGGTTTTCC [CACACA_negctrl_site1548],8.37 ± 0.32
9,TATAATGGATGCTAGCTGCACTAATAAGCAAAAATA,8.73 ± 0.28
10,GATGATATATATTAGCGTACATGTATATATACCATT [XGTACX_site6404],8.79 ± 0.38
11,AAAATTTCAAATAACACACACTAATATATATCTGTA [CACACA_site4904],8.28 ± 0.59
12,TAAATGAGAAGGACTGCACACTAAAATGGAAGGAGA [CACACA_site8449],9.03 ± 0.49
13,TATTTGTATATATGTGTGCACGTATAATCCATTAAA [GTGCAC_site9569],8.95 ± 0.18
14,TCCTTACCTATTAAAGCATGCTCGAATATATATTTT [TGCATGCA_site53],9.04 ± 0.45
15,ATATATATATCATATTGTACATACTTGTATTTATAT [XGTACX_site2432],9.23 ± 0.028
16,GTGGACGAAATAGTTGTAAATTTATGTGCAAACCTC [XGTACX_negctrl_site564],8.87 ± 0.39
17,AACAAAATAAATGTATGTACATATATATATATATAT [XGTACX_site7974],10.1 ± 0.39
18,TATATTAAATATTACACACATACATTTAGTGTCAAA [CACACA_site1990],8.35 ± 0.37
19,TGGGAGCACAGACACACACACACACCGATATATATA [CACACA_site8001],8.76 ± 0.29

row,Sequence,gcPBM binding intensity (ln)
1,ACTTATAAAATAACATGTACAAATATTTATTATATA [XGTACX_site133],8.37 ± 0.28
2,TATGGTAACATATGCTGTACAATATAATATGTTTAA [XGTACX_site1601],8.47 ± 0.32
3,AAAAAAAAAAGGTGTACATGCAAAATAAATTCTTAA [TGCATGCA_site556],9.02 ± 0.35
4,AAAAAAAAAAAACACACACACACACCGACAAAATAT [CACACA_site8411],8.81 ± 0.82
5,AAATTATAAATACCTACACACTTATCAAAATAAATT [CACACA_site5280],8.15 ± 0.52
6,TAAACATAAATATACACACAAACATATATGTATTTT [CACACA_site1214],8.51 ± 0.32
7,AATATTTTTTTATAAACACACATATATATAAATATA [CACACA_site3524],8.38 ± 0.51
8,TATATATTTTTATGTGTGCACTGTTTCATAAAAGAA,9.3 ± 0.21
9,TATATAAATATAATATGTACATATAATATGTATATA [XGTACX_site8120],8.36 ± 0.26
10,TAATAATTTATATATGCATGTCAAAATAATATTAAA [TGCATGCA_site12],8.4 ± 0.38
11,TGGTATCAAAAGAATACACACACACCGACATATATA [CACACA_site9265],8.71 ± 0.52
12,GAATATAAACATATTACACACATCTATCTGTACATT [CACACA_site5114],8.5 ± 0.33
13,GTGGGAAACATAAACACACACAAAAAGAAAAAATAG [CACACA_site4810],8.89 ± 0.64
14,GTTTTATTTATTTCATGTACACAAAAAAGGTTTTAA [XGTACX_site6525],8.76 ± 0.38
15,TCTCTAACTTTTAATACACACAAATAAATAAATAAA [CACACA_site6245],8.47 ± 0.35
16,TACATACATACATACACACACACATATAAATACATA [CACACA_site4626],9.205 ± 0.049
17,AATACATATATATATTGTACATATAGGGAAAAATTA [XGTACX_site2275],8.75 ± 0.52
18,AAAATAAAATAATAAAATAAAATAATAATAAAATAA [TGCATGCA_negctrl_site401],8.46 ± 0.33
19,AAAAAAAACGAACACACACACAAATATGTAAAAATA [CACACA_site6673],8.71 ± 0.67
